# Test results as given in article PMC9911399, “Two distinct binding modes provide the RNA-binding protein RbFox with extraordinary sequence specificity”.
# Changes are numbered by the printed parent chain; changes in the protein carry UniProt numbers. The list shows a part of the results.
# T1: RBFOX1 RRM RbFoxmut (Fox-RRM*) (Homo sapiens, UniProt Q9NWB1 109-208, R118D;E147R;N151S;E152T)
# T1 sequence: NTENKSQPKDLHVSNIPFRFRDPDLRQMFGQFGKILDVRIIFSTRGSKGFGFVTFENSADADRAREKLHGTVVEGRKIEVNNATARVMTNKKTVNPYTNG
# B1: CCUGAUG (DNA:RNA)
# RNA: GGGAGACCGGAAUUCAGAUUGUCCCCUGAUGUUAAAUCCCGUCGUAGCCACCA
# DNA 1: CAATCTGAATTCCGGTCTCCC
# DNA 2: TGGTGGCTACGACGGGATT
# B2: AUCCACA (DNA:RNA)
# RNA: B1 RNA with C25A, C26U, U27C, G28C, U30C, G31A
# DNA 1: CAATCTGAATTCCGGTCTCCC
# DNA 2: TGGTGGCTACGACGGGATT
# B3: UGGAGCU (DNA:RNA)
# RNA: GGGAGACCGGAAUUCAGAUUGUCCUGGAGCUUUAAAUCCCGUCGUAGCCACCA
# DNA 1: CAATCTGAATTCCGGTCTCCC
# DNA 2: TGGTGGCTACGACGGGATT
# B4: CCAUUCA (DNA:RNA)
# RNA: B1 RNA with U27A, G28U, A29U, U30C, G31A
# DNA 1: CAATCTGAATTCCGGTCTCCC
# DNA 2: TGGTGGCTACGACGGGATT
# B5: AGAGUGG (DNA:RNA)
# RNA: B1 RNA with C25A, C26G, U27A, A29U, U30G
# DNA 1: CAATCTGAATTCCGGTCTCCC
# DNA 2: TGGTGGCTACGACGGGATT
# B6: CGAGGAA (DNA:RNA)
# RNA: B1 RNA with C26G, U27A, A29G, U30A, G31A
# DNA 1: CAATCTGAATTCCGGTCTCCC
# DNA 2: TGGTGGCTACGACGGGATT
# B7: CAUUUCG (DNA:RNA)
# RNA: B1 RNA with C26A, G28U, A29U, U30C
# DNA 1: CAATCTGAATTCCGGTCTCCC
# DNA 2: TGGTGGCTACGACGGGATT
# B8: AUGUUCA (DNA:RNA)
# RNA: B3 RNA with U25A, G26U, A28U, G29U, U31A
# DNA 1: CAATCTGAATTCCGGTCTCCC
# DNA 2: TGGTGGCTACGACGGGATT
# B9: AGGCCCU (DNA:RNA)
# RNA: B3 RNA with U25A, A28C, G29C
# DNA 1: CAATCTGAATTCCGGTCTCCC
# DNA 2: TGGTGGCTACGACGGGATT
# B10: AUUGGUU (DNA:RNA)
# RNA: B1 RNA with C25A, C26U, A29G, G31U
# DNA 1: CAATCTGAATTCCGGTCTCCC
# DNA 2: TGGTGGCTACGACGGGATT
# B11: CGUGCUC (DNA:RNA)
# RNA: B1 RNA with C26G, A29C, G31C
# DNA 1: CAATCTGAATTCCGGTCTCCC
# DNA 2: TGGTGGCTACGACGGGATT
# B12: AGCAUAU (DNA:RNA)
# RNA: B3 RNA with U25A, G27C, G29U, C30A
# DNA 1: CAATCTGAATTCCGGTCTCCC
# DNA 2: TGGTGGCTACGACGGGATT
# B13: UCUACUG (DNA:RNA)
# RNA: B1 RNA with C25U, G28A, A29C
# DNA 1: CAATCTGAATTCCGGTCTCCC
# DNA 2: TGGTGGCTACGACGGGATT
# B14: CCGUGCG (DNA:RNA)
# RNA: B1 RNA with U27G, G28U, A29G, U30C
# DNA 1: CAATCTGAATTCCGGTCTCCC
# DNA 2: TGGTGGCTACGACGGGATT
# B15: UGACGAC (DNA:RNA)
# RNA: B3 RNA with G27A, A28C, C30A, U31C
# DNA 1: CAATCTGAATTCCGGTCTCCC
# DNA 2: TGGTGGCTACGACGGGATT
# B16: GUGCCUG (DNA:RNA)
# RNA: B1 RNA with C25G, C26U, U27G, G28C, A29C
# DNA 1: CAATCTGAATTCCGGTCTCCC
# DNA 2: TGGTGGCTACGACGGGATT
# B17: GAAAGAC (DNA:RNA)
# RNA: B3 RNA with U25G, G26A, G27A, C30A, U31C
# DNA 1: CAATCTGAATTCCGGTCTCCC
# DNA 2: TGGTGGCTACGACGGGATT
# B18: ACGUCGC (DNA:RNA)
# RNA: B1 RNA with C25A, U27G, G28U, A29C, U30G, G31C
# DNA 1: CAATCTGAATTCCGGTCTCCC
# DNA 2: TGGTGGCTACGACGGGATT
# B19: AGAGAGG (DNA:RNA)
# RNA: B1 RNA with C25A, C26G, U27A, U30G
# DNA 1: CAATCTGAATTCCGGTCTCCC
# DNA 2: TGGTGGCTACGACGGGATT
# B20: AUAGCCA (DNA:RNA)
# RNA: B1 RNA with C25A, C26U, U27A, A29C, U30C, G31A
# DNA 1: CAATCTGAATTCCGGTCTCCC
# DNA 2: TGGTGGCTACGACGGGATT
# Target: T1, RBFOX1 RRM RbFoxmut (Fox-RRM*)
# Assay: EMSA; HiTS-Eq, 1 nM pool, 10 min; buffer printed only for the single-RNA assays: 10 mM Tris pH 7.5, 150 mM NaCl, 3.4 mM EDTA, 0.001% NP-40, 30 C
# Details: tags: His6 N-terminal (pET28a); label: 5' 32P
# In short: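 Relative association constants, normalised to the cognate motif, were derived by comparing read counts of each RNA species with those of the control reaction. The RNA sequenced was the free fraction, separated by 8% native PAGE after a 10 min equilibration in 50 µL of 1 nM 5′-radiolabelled RNA (7 randomized nucleotides) with increasing concentrations of purified wild-type or mutant RbFox RRM.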
row,Binder,binding signal
1,B1,0.0848 KA relative to UGCAUGU
2,B2,0.118 KA relative to UGCAUGU
3,B3,0.0871 KA relative to UGCAUGU
4,B4,0.0985 KA relative to UGCAUGU
5,B5,0.107 KA relative to UGCAUGU
6,B6,0.0902 KA relative to UGCAUGU
7,B7,0.113 KA relative to UGCAUGU
8,B8,0.144 KA relative to UGCAUGU
9,B9,0.0519 KA relative to UGCAUGU
10,B10,0.0958 KA relative to UGCAUGU
11,B11,0.0731 KA relative to UGCAUGU
12,B12,0.133 KA relative to UGCAUGU
13,B13,0.112 KA relative to UGCAUGU
14,B14,0.137 KA relative to UGCAUGU
15,B15,0.069 KA relative to UGCAUGU
16,B16,0.317 KA relative to UGCAUGU
17,B17,0.0496 KA relative to UGCAUGU
18,B18,0.0954 KA relative to UGCAUGU
19,B19,0.092 KA relative to UGCAUGU
20,B20,0.117 KA relative to UGCAUGU
